According to article PMC5069779:
Results are given in words; binding and its absence hold for the method and conditions named. Binding seen in cells or lysates may run through a third protein. Some results given as binding are weak or reduced against the parent protein; the word gives no strength. For part of these data: Where a sequence is shown, tags or fusion partners need not be part of it.

Sequences of proteins named here, by UniProt entry; tags and fusion partners are left off.
UniProt Q13153: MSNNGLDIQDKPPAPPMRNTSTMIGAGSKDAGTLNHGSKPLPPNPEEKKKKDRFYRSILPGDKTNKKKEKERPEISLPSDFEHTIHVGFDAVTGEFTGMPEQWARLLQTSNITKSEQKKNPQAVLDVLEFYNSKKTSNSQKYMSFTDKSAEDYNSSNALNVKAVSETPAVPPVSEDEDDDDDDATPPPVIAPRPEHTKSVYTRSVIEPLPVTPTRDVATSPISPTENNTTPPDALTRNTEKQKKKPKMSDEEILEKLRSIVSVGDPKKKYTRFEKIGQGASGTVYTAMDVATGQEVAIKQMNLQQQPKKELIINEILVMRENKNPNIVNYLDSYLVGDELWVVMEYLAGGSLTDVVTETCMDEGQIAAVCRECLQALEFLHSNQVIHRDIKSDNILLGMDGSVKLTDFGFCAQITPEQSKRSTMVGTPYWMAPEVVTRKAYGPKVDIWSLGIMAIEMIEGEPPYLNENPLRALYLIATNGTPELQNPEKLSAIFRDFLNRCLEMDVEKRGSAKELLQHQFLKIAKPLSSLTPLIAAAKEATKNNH

Experiments:
[1] = target: T1, HA-tagged MIIP (1-360), C-terminal deletion (human) (UniProt Q5JXC2); assay: co-IP; anti-HA immunoprecipitation from HEC1B cells transfected for 24 h with HA-tagged wild-type or truncated MIIP; blot for PAK1 and HA
T1 sequence: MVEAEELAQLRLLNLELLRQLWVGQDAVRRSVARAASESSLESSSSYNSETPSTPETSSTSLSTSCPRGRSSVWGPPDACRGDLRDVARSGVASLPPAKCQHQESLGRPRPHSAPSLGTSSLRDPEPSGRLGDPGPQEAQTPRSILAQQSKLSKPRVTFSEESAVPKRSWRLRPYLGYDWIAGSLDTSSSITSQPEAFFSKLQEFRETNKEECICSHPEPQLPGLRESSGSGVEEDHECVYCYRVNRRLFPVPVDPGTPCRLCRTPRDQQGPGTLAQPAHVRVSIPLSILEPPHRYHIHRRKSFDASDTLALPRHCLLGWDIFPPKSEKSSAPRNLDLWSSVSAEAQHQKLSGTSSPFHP

[2] = target: T2, HA-tagged MIIP (1-283), C-terminal deletion (human) (UniProt Q5JXC2); assay: as above
T2 sequence: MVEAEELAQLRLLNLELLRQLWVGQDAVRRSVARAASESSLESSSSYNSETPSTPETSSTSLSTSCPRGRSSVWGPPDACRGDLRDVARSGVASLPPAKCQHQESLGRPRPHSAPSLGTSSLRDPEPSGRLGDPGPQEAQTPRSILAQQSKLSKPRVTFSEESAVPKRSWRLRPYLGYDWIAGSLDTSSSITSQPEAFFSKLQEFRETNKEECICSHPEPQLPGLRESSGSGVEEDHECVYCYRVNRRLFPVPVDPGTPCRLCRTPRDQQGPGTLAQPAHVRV

[3] = target: T3, HA-tagged MIIP (1-313), C-terminal deletion (human) (UniProt Q5JXC2); assay: as above
T3 sequence: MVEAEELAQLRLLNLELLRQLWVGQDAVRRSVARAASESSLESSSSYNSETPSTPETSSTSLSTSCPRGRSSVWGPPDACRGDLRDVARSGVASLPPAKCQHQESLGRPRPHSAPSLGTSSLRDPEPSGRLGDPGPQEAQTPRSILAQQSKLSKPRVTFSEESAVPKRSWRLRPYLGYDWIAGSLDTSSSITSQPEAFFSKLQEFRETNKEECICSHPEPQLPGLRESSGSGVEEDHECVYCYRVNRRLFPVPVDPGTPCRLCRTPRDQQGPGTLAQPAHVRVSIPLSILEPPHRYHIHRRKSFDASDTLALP

[4] = target: T4, HA-tagged wild-type MIIP (human) (UniProt Q5JXC2); assay: as above
T4 sequence: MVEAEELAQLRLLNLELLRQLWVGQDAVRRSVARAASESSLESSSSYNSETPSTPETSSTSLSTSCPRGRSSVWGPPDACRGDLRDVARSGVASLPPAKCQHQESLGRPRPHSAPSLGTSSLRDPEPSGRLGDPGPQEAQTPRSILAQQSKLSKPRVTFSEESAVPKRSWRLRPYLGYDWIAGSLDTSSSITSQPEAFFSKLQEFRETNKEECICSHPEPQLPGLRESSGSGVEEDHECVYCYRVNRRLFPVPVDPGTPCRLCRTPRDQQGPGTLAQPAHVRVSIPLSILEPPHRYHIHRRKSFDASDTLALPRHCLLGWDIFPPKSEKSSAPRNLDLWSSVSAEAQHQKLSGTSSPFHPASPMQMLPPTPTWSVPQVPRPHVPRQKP

[5] = target: T5, Migration and invasion inhibitory protein (MIIP) expressed from adenovirus (Ad-MIIP) in HEC1B cells (human) (UniProt Q5JXC2); assay: co-IP; anti-MIIP antibody, total proteins from MIIP-overexpressing HEC1B cells; blot for PAK1
T5 sequence: T4 sequence

[6] = target: Endogenous PAK1 (p21-activating kinase 1) (human (endogenous in HEC1B and HEC1A)) (UniProt Q13153); assay: co-IP; reverse co-IP with anti-PAK1 antibody, total proteins from HEC1A cells, both endogenous; blot for MIIP

## Endogenous PAK1 (p21-activating kinase 1) (from UniProt Q13153 1-545)
[1]
  binding: no binding
[2]
  binding: no binding
[3]
  binding: no binding
[4]
  binding: binds
[5]
  binding: binds

B1: Endogenous MIIP of HEC1A cells (protein, UniProt Q5JXC2 1-388)
chain: T4 sequence
[6]
  binding: binds
